The campaign covered roughly 310,000 compounds. About 14,000 (4.5%) showed an effect of 50% or more. The effect is printed as a negative number. This is one part of the list.
Each molecule was assayed against human ether-à-go-go-related gene (hERG) potassium channel (human, UniProt Q12809) (assay: primary screen, population patch clamp on CHO cells stably expressing hERG).
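Also: peak tail current of the secondary pulse compared with the same well before compound.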

Chain of human ether-à-go-go-related gene (hERG) potassium channel (Q12809 whole entry, looked up): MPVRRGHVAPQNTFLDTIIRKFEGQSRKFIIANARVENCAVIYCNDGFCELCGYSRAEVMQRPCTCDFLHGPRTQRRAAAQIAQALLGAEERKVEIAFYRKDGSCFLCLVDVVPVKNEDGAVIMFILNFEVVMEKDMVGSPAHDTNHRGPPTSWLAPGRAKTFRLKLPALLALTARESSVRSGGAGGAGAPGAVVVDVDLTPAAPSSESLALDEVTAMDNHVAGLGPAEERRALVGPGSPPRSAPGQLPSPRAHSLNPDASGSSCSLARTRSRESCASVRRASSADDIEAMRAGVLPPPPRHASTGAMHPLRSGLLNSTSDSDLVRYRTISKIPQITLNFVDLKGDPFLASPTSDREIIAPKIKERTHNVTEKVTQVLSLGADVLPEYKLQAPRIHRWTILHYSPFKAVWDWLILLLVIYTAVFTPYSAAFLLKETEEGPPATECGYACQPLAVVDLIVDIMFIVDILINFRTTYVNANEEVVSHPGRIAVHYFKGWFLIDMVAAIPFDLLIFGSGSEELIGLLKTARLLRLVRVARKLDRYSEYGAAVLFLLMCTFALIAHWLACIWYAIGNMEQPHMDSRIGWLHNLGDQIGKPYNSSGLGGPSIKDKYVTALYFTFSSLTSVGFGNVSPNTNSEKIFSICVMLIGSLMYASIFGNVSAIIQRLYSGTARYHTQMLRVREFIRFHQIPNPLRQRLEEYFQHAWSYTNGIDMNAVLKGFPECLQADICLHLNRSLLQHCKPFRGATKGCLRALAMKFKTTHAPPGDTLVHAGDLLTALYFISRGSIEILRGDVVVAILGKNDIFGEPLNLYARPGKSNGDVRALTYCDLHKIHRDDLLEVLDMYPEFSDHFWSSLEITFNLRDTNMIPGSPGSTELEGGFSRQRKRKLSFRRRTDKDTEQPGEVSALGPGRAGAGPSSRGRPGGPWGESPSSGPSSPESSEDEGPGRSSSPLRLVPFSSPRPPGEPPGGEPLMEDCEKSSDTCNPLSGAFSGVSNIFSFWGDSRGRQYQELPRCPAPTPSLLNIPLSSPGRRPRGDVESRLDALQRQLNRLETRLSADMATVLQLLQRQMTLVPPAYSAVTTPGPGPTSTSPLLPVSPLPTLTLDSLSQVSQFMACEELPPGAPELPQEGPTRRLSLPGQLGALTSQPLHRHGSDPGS

Row | Structure (SMILES) | hERG current change (%, negative = inhibition) at 10uM [%]
1 | CCN(CC)S(=O)(=O)c1cccc(C(=O)Oc2cccc(NC(=O)c3cccs3)c2)c1 | -8.91
2 | COc1cc(NC(=O)c2cc3sccc3n2C)cc(OC)c1 | -19.5
3 | COc1ccc2cc(C(=O)N3CCN(c4ccc(F)cc4)CC3)[nH]c2c1 | 13.7
4 | Cc1ccccc1CCN(C(=O)Cn1nnc2ccccc21)C(C(=O)NC(C)(C)C)c1ccsc1 (stereo not shown) | -2.38
5 | CC(C)Cc1nnc(NC(=O)CCC(=O)Nc2ccc3cn[nH]c3c2)s1 | 10.9
6 | Cc1ccc(N2CCN(C(=O)c3cccs3)CC2)cc1C | 2.97
7 | CCOc1cc(N2CCOCC2)c(OCC)cc1NC(=O)COC(=O)c1cccc2ccccc12 | 33.6
8 | Cc1ccc(CN2CCN(CC(=O)O)C2=O)cc1 | 41.5
9 | COCCn1c(SCC(=O)N2CCc3ccccc3C2)nc2ccccc2c1=O | -43.8
10 | Cc1cnc(NC(=O)CN(C)S(=O)(=O)c2ccc(Cl)cc2)s1 | -1.68
11 | COc1ccc2nc(NC(=O)CNS(=O)(=O)c3cccs3)sc2c1 | -1.25
12 | CC1(NC(=O)CCc2nc3sc4c(c3c(=O)[nH]2)CCCC4)CCS(=O)(=O)C1 (stereo not shown) | -2.89
13 | O=C(O)C(=O)/C(=C\c1ccccc1)c1ccc2ccccc2n1 | 13.9
14 | COc1ccc(-c2noc(-c3ccccc3C(=O)Nc3cccnc3)n2)cc1 | -12.5
15 | CCN(CC)C(=O)c1ccc(NC(=O)c2cccc(S(=O)(=O)N3CCN(C)CC3)c2)cc1 | 6.98
16 | CCn1c(=O)c(=O)[nH]c2cc(C(=O)NCc3ccc(F)cc3)ccc21 | -13
17 | CCN(CC)c1ccc(/C=N/Nc2cccc(C)c2)c(O)c1 | 7.93
18 | C#CCN1C(=O)C2(C(C#N)=C(N)OC(C)=C2C(=O)OCc2ccccc2)c2ccccc21 (stereo not shown) | -10.7
19 | C/C(CC(=O)Nc1ccc([N+](=O)[O-])cc1)=N/NC(=O)C1CC12CCC2 (stereo not shown) | -37.7
20 | CC(C)N1C(=O)CCC1C(=O)N1CCC(Cc2ccccc2)CC1 (stereo not shown) | -25.3
21 | COc1ccc([C@@H]2OC2(C(N)=O)C(N)=O)cc1 | 6.32
22 | O=C(NCCN1CCOCC1)C(=O)NCC1OCCCN1S(=O)(=O)c1ccc(F)cc1 (stereo not shown) | 11

Row | Structure (SMILES) | hERG current change (%, negative = inhibition) at 10uM [%]
23 | CCOC(=O)c1sc(NC(=O)c2cc3ccccc3o2)nc1C | -3.89
24 | CC(CC(=O)N1CCN(c2ccccc2)CC1)S(=O)(=O)c1ccc2c(c1)NC(=O)CO2 (stereo not shown) | -20.1
25 | O=C(Nc1ccc(Br)c(C(F)(F)F)c1)c1ccc(C(F)(F)F)cc1 | 11.8
26 | CC(C)CN(C(=O)COC(=O)C1CC1)c1c(N)n(Cc2ccccc2)c(=O)[nH]c1=O | 13
27 | Cc1nnc(NC(=O)CSc2nnc(-c3ccccc3)n2C)s1 | 14.9
28 | CC(C)C(c1nnnn1Cc1cccs1)N1CCN(c2ccccc2)CC1 (stereo not shown) | 20
29 | CCOC(=O)C1CCN(C(=O)C2CCN(S(=O)(=O)c3ccc4c(c3)CC(C)N4C(C)=O)CC2)CC1 (stereo not shown) | 16.6
30 | CCOC(=O)N1CCN(C(=O)/C(=C/c2cccs2)NC(=O)c2cccs2)CC1 | -45.7
31 | Nc1nc(NC(=O)c2ccccc2)nn1-c1ccccc1 | -70.9
32 | CN(c1ccc(C(=O)NCc2ccncc2)cc1)S(C)(=O)=O | 0.455
33 | CCOC(=O)c1c(-c2ccccc2Cl)cn2ccccc12 | -13.9
34 | O=C(CCCO)N/N=C/c1ccccc1[N+](=O)[O-] | 20.7
35 | Cc1cc(N2CCN(C)CC2)nc2ccc(NC(=S)N3CCCCCC3)cc12 | -67.2
36 | Cc1c(C#N)sc(C(N)=O)c1C | 0.542
37 | O=C(NCc1nnnn1-c1ccc(F)cc1)C1CC(=O)N(c2ccc(F)cc2)C1 (stereo not shown) | -34.7
38 | Cc1ccc(NC(=S)NCc2ccccc2)c(C)c1 | 2.15
39 | Cc1ccc(/C=c2\sc3nc(-c4cccnc4)nn3c2=O)cc1 | -7.97
40 | COc1ccc(-c2c(=O)n(OCc3ccccn3)c3ccccc3[n+]2[O-])cc1OC | 29.8
41 | O=C1[C@@H]2[C@H](C(=O)N1Cc1cccnc1)[C@H]1C=C[C@@H]2C1 | -3.89
42 | CC(Oc1ccc(Cl)cc1)C(=O)/C=C/N(C)C (stereo not shown) | -11
43 | O=C(COc1ccccc1F)NCc1ccc(-n2cccc2)cc1 | 4.13
44 | CCc1ccc(NS(=O)(=O)c2ccc(OC)c(C)c2)cc1 | -7.22

Row | Structure (SMILES) | hERG current change (%, negative = inhibition) at 10uM [%]
45 | CN(CC(=O)Nc1ccc(N2CCOCC2)cc1)C(=O)c1cc2c(s1)CCCC2 | -17.9
46 | NS(=O)(=O)c1ccc(CCNC(=O)/C=C/c2ccccc2[N+](=O)[O-])cc1 | 6.37
47 | CCCCCn1c(=O)c(C(=O)Nc2cnccn2)c(O)c2ccccc21 | 25.1
48 | Cn1c(=O)c2cn(-c3ccccc3)cc2n(C)c1=O | 0.538
49 | Fc1cccc2ncnc(OCc3ccccc3)c12 | 1.71
50 | Cc1ccc(S(=O)(=O)N(CC(=O)N2CCCC2)C2CCCCC2)cc1 | -37.7
51 | Cc1ccc2[nH]c(=O)c(CN(C(=O)c3cccc([N+](=O)[O-])c3)C(C)C)cc2c1 | -50.5
52 | O=C(NCCNC(=O)C(c1ccccc1)c1ccccc1)c1ccco1 | 13.4
53 | O=C(Cn1c(=O)n(CC2CS2)c2ccccc21)N1CCCCC1 (stereo not shown) | 7.21
54 | Nc1nc(C2CC(=O)OC23CCCCC3)cs1 (stereo not shown) | 10.5
55 | CCN1CCN(CCCN(Cc2cccs2)C(=S)Nc2ccccc2C)CC1 | -54.4
56 | O=[N+]([O-])c1c(Nc2ccc(O)cc2)cc(N2CCOCC2)c2nonc12 | 1.3
57 | CC(=O)Nc1ccc(NC(=S)NC(=O)/C=C/c2ccco2)cc1 | 6.71
58 | Cc1cc2nc(-c3ccc(SCC(=O)N4CCc5ccccc54)nc3)[nH]c2cc1C | 3.35
59 | O=c1cc(-c2ccc(O)cc2)oc2cc(O)cc(O)c12 | -2.23
60 | CCCn1c(SC(C)C(=O)N2CCOCC2)nc2ccc(Br)cc2c1=O (stereo not shown) | -56.1
61 | O=C1[C@@H]2Cc3c([nH]c4ccccc34)C(c3ccccc3)N2C(=O)CN1C1CC1 (stereo partly shown) | 8.53
62 | CCC(c1nnc(SCC(=O)Nc2cc(C)on2)o1)N(C)C (stereo not shown) | 13.2
63 | CC1CCCN(S(=O)(=O)c2cccc(-c3cn4cccnc4n3)c2)C1 (stereo not shown) | -9.8
64 | Cc1nnc2c(N3CCN(C(=O)c4ccco4)CC3)nc3ccccc3n12 | -33.1
65 | Cc1cc(C)cc(CSCC(=O)N/N=C/c2ccc(OCC(=O)NCc3ccco3)cc2)c1 | -11.3
66 | Nc1ccc(S(=O)(=O)Nc2ccnn2-c2ccccc2)cc1 | 1.77

Row | Structure (SMILES) | hERG current change (%, negative = inhibition) at 10uM [%]
67 | COc1cccc(CNC(=O)C2CCN(Cc3cnn(-c4ccccc4)c3-n3cccc3)CC2)c1 | -71.3
68 | CN(Cc1ccccc1F)c1ncnc2sccc12 | -3.84
69 | CCn1c(C)nc2cc(C(=O)NNS(=O)(=O)c3ccc(C)cc3C)ccc21 | -12.9
70 | COc1cccc(NC(=O)Nc2ccc(CC(=O)O)cc2)c1 | 12.7
71 | COc1ccc(C)cc1-n1nnnc1SCc1nc2ccccc2c(=O)[nH]1 | -2.66
72 | CC(C)c1ccc(-n2c(O)c(C=NC(CCS(C)=O)C(=O)O)c(=O)[nH]c2=S)cc1 (stereo not shown) | 20.4
73 | CN(CCc1ccccn1)C(=O)CCC1CCCN(C(=O)c2c(F)ccc(F)c2F)C1 (stereo not shown) | -11.7
74 | CN(C)C(=O)Nc1ccccc1CC[N+](=O)[O-] | -1.02
75 | COC(=O)C1=C(c2c(C)noc2C)C[C@@H]2CC[C@H]1N2C(=O)N1CCc2cc(OC)c(OC)cc2C1 | -0.799
76 | O=C(COC(=O)Cn1nc(-c2ccccc2)oc1=O)Nc1ccc(F)cc1 | 4.6
77 | O=C(NNS(=O)(=O)c1ccccc1)C1CCCCC1 | 6.38
78 | COC(=O)CCC(=O)NNC(=O)C1CC1(c1ccccc1)c1ccccc1 (stereo not shown) | 6.43
79 | Nc1nc2n(n1)C(c1cccs1)CC(c1ccc(Br)cc1)N2 (stereo not shown) | -57.5
80 | Cc1nn(Cc2cccc(C(=O)Nc3ccn(Cc4c(F)c(F)cc(F)c4F)n3)c2)c(C)c1[N+](=O)[O-] | -8.4
81 | O=C(CCN1C(=O)c2ccccc2C1=O)CN1CCOCC1 | 19.8
82 | O=C1CNC(=S)N1c1nc(-c2ccccc2)cs1 | 35.7
83 | NC(=O)c1ccccc1-c1nc(-c2ccccc2)no1 | -76.5
84 | Clc1nc(CN2CCOCC2)nc2sc3c(c12)CCC3 | 14.5
85 | O=C(CCn1c(=O)sc2ccccc21)Nc1nccs1 | -2.69
86 | C/C(CC(=O)c1ccccc1)=N\NC(=O)CC#N | 12.1
87 | CC(=O)Nc1nc(C)c(CCC2OCCO2)c(=O)[nH]1 | 17.4
88 | O=C(Cn1ccc2ccccc2c1=O)NCCC(=O)N1CCN(c2ccccc2)CC1 | 4.3

From PMC4336329 (PLoS ONE, 2015)
